Source: the supplement of paper PMC7826260
The list shows a part of the results. Viral Rep nickase domains cut single-stranded DNA in vitro for 1 h at 37 °C with 3 µM enzyme; only the middle of the 90-letter strands is printed. Values are log2 of uncut reads against the no-enzyme pool; more negative means more cut, near 0 not cut, and no call is made. Counts are relative to all reads, so uncut sequences can rise above 0 when many others are cut.

Legend:
Assay in all cases: uncleaved DNA left, log2 of reads against the no-enzyme library (log2 ratio); higher = less cleavage (more negative = more Rep cleavage of the k-mer); sequences stand for … in CTCGTCCG…ACCGGAGA
[1] = test system: T1, Rep nickase domain of Muscovy duck circovirus
T1 sequence (Rep 1-111, printed without the tag): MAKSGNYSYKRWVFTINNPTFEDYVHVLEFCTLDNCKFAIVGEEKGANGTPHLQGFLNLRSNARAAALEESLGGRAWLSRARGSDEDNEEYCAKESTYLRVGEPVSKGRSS
Experimental: (§1)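 A pool of 90-nt single-stranded DNAs with seven random bases just before the constant AC of the nick site (name = the seven bases) was cut by 3 µM recombinant His6-SUMO-tagged Rep nickase domain (300 nM DNA, 50 mM HEPES pH 8.0, 50 mM NaCl, 1 mM MnCl2, 1 h, 37 °C, three replicates). Uncut DNA was amplified and sequenced.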

[2] = test system: T2, Rep nickase domain of banana bunchy top virus
T2 sequence (Rep 1-94, printed without the tag): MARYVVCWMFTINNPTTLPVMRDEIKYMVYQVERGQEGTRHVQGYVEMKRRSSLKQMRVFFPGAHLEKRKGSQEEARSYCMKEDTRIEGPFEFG
Experimental: as §1

[3] = test system: T3, Rep nickase domain of cabbage leaf curl virus
T3 sequence (Rep 1-116, printed without the tag): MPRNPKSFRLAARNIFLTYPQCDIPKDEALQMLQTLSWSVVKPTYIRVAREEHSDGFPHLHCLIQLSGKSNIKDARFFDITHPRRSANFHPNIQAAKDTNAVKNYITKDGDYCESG
Experimental: as §1

[4] = test system: T4, Rep nickase domain of chickpea chlorotic dwarf virus
T4 sequence (Rep 1-124, printed without the tag): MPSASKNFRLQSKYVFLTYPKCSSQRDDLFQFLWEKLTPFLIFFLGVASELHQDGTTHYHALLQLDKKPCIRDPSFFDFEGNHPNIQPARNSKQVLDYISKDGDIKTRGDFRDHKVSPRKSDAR
Experimental: as §1

[5] = test system: T5, Rep nickase domain of faba bean necrotic yellows virus
T5 sequence (Rep 1-98, printed without the tag): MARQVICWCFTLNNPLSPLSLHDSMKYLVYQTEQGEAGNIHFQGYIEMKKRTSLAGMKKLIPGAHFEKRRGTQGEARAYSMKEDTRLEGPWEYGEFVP
Experimental: as §1

[6] = test system: T6, Rep nickase domain of maize striate mosaic virus
T6 sequence (Rep 1-117, printed without the tag): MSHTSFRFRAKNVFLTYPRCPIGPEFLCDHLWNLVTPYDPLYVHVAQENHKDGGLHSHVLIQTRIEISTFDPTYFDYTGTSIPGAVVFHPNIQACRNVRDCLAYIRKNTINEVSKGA
Experimental: as §1

[7] = test system: T7, Rep nickase domain of porcine circovirus 2
T7 sequence (Rep 2-116, printed without the tag): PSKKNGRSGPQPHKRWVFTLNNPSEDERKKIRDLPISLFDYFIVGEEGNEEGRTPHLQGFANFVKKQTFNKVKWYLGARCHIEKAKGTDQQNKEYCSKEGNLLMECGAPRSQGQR
Experimental: as §1

[8] = test system: T8, Rep nickase domain of tomato golden mosaic virus
T8 sequence (Rep 1-124, printed without the tag): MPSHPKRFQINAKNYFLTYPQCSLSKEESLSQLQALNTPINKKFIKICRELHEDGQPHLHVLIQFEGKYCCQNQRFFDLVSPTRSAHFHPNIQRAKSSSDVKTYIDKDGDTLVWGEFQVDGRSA
Experimental: as §1

[9] = test system: T9, Rep nickase domain of tomato yellow leaf curl virus
T9 sequence (Rep 1-136, printed without the tag): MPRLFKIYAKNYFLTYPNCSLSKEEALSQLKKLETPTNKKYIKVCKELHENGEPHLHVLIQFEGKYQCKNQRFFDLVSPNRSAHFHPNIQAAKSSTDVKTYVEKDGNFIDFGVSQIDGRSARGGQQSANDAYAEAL
Experimental: as §1

[10] = test system: T10, Rep nickase domain of wheat dwarf virus
T10 sequence (Rep 1-137, printed without the tag): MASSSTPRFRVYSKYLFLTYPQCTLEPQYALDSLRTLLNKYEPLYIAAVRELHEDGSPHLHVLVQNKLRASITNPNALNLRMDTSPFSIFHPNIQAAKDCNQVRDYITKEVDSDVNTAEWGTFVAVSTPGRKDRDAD
Experimental: as §1

Sequence	uncleaved DNA left (log2) [1]	uncleaved DNA left (log2) [2]	uncleaved DNA left (log2) [3]	uncleaved DNA left (log2) [4]	uncleaved DNA left (log2) [5]	uncleaved DNA left (log2) [6]	uncleaved DNA left (log2) [7]	uncleaved DNA left (log2) [8]	uncleaved DNA left (log2) [9]	uncleaved DNA left (log2) [10]
ACACCAT	-0.0397	-0.118	-0.142	-0.777	-0.11	-0.461	-0.0132	-0.13	-0.0946	-0.0108
GTTCCCA	-0.0222	0.147	0.328	0.893	0.0447	1.84	-0.114	0.0319	0.119	0.164
TTGGGGA	-0.0278	-0.169	0.299	0.674	0.0654	0.617	0.151	-0.0751	-0.0476	-0.0182
TGGTGTA	0.0236	0.161	0.321	0.241	0.108	1.07	-0.0623	0.104	0.159	0.094
CGGCAGT	-0.19	-0.0701	0.0333	0.601	-0.166	0.695	-0.0157	-0.207	-0.135	-0.175
TAACTAC	0.0222	-0.0184	-0.815	-3.03	0.0134	-0.499	-0.0243	-0.0546	0.0616	-0.204
GAACCTG	0.0112	0.0181	0.0402	0.293	-0.0736	1.07	0.022	-0.00677	-0.11	0.00223
GTGTGAA	-0.0154	0.0671	0.352	0.932	-0.0661	1.66	0.0411	0.146	0.0908	0.118
CGAGCGG	-0.0868	0.0804	0.153	0.817	0.0338	1.03	0.099	0.0834	-0.0398	0.117
ATCTCAC	0.00979	0.0716	-0.124	-0.237	-0.0204	-0.476	0.147	0.0983	0.0231	0.0361
AAGTACT	-4.04	-3.48	-0.886	-2.82	-3.72	0.226	-4.32	-0.324	-0.113	-0.183
AGCTACA	-0.0283	0.0594	0.000761	-0.386	-0.0132	0.874	-0.3	0.115	-0.104	-0.0618
GAGAGAA	0.0912	0.113	0.433	1.06	0.00745	1.11	-0.125	0.156	0.0628	0.0958
ATCTACT	-3.63	-1.96	-0.742	-3.06	-0.288	-0.718	-3.62	-0.151	-0.0461	-0.261
AGTCGAC	-0.0294	0.0133	0.108	0.65	0.212	1.29	0.258	0.126	0.106	0.154
GCTACAT	0.072	0.107	0.701	1.49	-0.0812	1.87	0.156	0.0508	0.0913	0.139
TCTAATA	0.102	0.0909	0.0372	-1.28	0.0416	-0.394	-0.125	0.145	0.125	0.118
ATACTCT	-0.0138	-0.167	-0.334	-2.61	-0.103	-0.835	-0.36	-0.131	0.0016	-0.164
CACAACT	-0.19	-0.208	-0.937	-3.28	-0.106	-1.21	-2.33	-0.22	-0.148	-0.243
CGAATCC	0.0296	0.0803	0.0832	0.121	-0.0213	-0.303	0.0174	0.0324	0.0731	0.0617
AACGAGC	0.0621	0.0188	0.105	0.685	0.066	0.129	0.104	0.129	-0.0476	0.012
ACGCTAT	-0.0204	-0.202	-0.289	-0.771	-0.00992	-0.512	0.144	0.0121	-0.00422	-0.00546
ATGAATG	0.0257	0.0776	-0.0231	0.442	0.0331	-0.0543	0.00403	0.0539	0.00577	0.0676
ACCGTCC	-0.0746	-0.123	-0.237	-0.341	-0.0301	-0.649	-0.0263	-0.0826	-0.226	-0.202
GTGGCCG	-0.0911	-0.119	-0.413	-0.145	-0.0177	-0.355	-0.00397	-0.0898	-0.0222	-0.0415
CAGTGCC	-0.122	-0.163	-0.736	-0.705	-0.0436	-1.02	-0.851	-0.0566	-0.0484	-0.181
ACTCTGT	0.0509	-0.132	-0.304	-0.76	-0.037	-0.79	-0.0796	0.0715	-0.143	-0.0651
CCGAGGT	-0.0732	-0.0095	0.322	0.763	-0.0123	1.12	0.0751	0.0422	-0.151	0.0276
TAAGGGC	0.072	0.121	0.342	0.72	0.135	0.503	0.00263	0.141	0.055	0.113
ATCAATT	0.0661	0.0487	-0.131	-2.28	-0.0209	-0.45	-0.425	0.0289	0.145	0.0569
